Laboratory results from the antibiotic and cytotoxicity screens of Wong et al. (2023).
The other results are listed elsewhere or left out.

Legend:
HSkMC = human skeletal muscle cells; assay: cytotoxicity call (relative viability < 0.9); conditions: 10 µM
S. aureus RN4220 = assay: growth inhibition call (relative growth <= 0.2); conditions: 50 µM

Row | Compound | cytotoxicity call (HSkMC) | growth inhibition call (S. aureus RN4220)
1 | CCOC(=O)c1c(CN2CCN(c3ccccc3)CC2)n(-c2ccccc2)c2cc(Br)c(OC)cc12 | inactive | inactive
2 | COc1cc(/C=C/C(=O)NCCCNC(=O)/C=C/c2cc(OC)c(OC)c(OC)c2)cc(OC)c1OC | inactive | inactive
3 | Nc1nc(N)c2c(n1)CCCC2 | inactive | inactive
4 | C[C@@H]1CN([C@@H](C)CO)C(=O)Cc2cc(NS(=O)(=O)c3ccc(Cl)cc3)ccc2O[C@H]1CN(C)Cc1ccc(C(F)(F)F)cc1 | inactive | inactive
5 | COc1ccc(CN(C)C[C@@H]2Oc3ccc(NC(=O)Nc4ccc(C(F)(F)F)cc4)cc3CC(=O)N([C@@H](C)CO)C[C@@H]2C)cc1 | inactive | inactive
6 | C[C@@H]1CN([C@H](C)CO)S(=O)(=O)c2ccc(C#Cc3ccc(F)cc3)cc2O[C@@H]1CN(C)S(=O)(=O)c1ccc(F)cc1 | inactive | inactive
7 | C[C@@H]1CCCCO[C@@H](CN(C)C(=O)c2ccccc2)[C@@H](C)CN([C@@H](C)CO)C(=O)c2cc(NS(=O)(=O)c3ccc(Cl)cc3)ccc2O1 | inactive | inactive
8 | Cc1ccc(S(=O)(=O)N(C)C[C@H]2Oc3ccc(NC(=O)CCCN(C)C)cc3C(=O)N([C@H](C)CO)C[C@H]2C)cc1 | inactive | inactive
9 | C[C@@H]1CCCCO[C@H](CN(C)Cc2ccc(C(F)(F)F)cc2)[C@H](C)CN([C@H](C)CO)C(=O)c2cc(NC(=O)CCC(F)(F)F)ccc2O1 | inactive | inactive
10 | C[C@H]1CN([C@@H](C)CO)C(=O)c2cc(Br)cnc2O[C@H]1CN(C)S(=O)(=O)c1ccccc1 | inactive | inactive
11 | C[C@@H]1CN([C@@H](C)CO)C(=O)c2cccc(NC(=O)C3CCOCC3)c2O[C@@H]1CN(C)S(=O)(=O)c1ccccc1 | inactive | inactive
12 | C[C@H](CO)N1C[C@H](C)[C@@H](CN(C)Cc2ccc(C(F)(F)F)cc2)Oc2ccc(NC(=O)Nc3ccc4c(c3)OCO4)cc2CC1=O | active | inactive
13 | Cc1noc(C)c1NC(=O)Nc1ccc2c(c1)C(=O)N([C@@H](C)CO)C[C@@H](C)[C@@H](CN(C)S(C)(=O)=O)O2 | inactive | inactive
14 | Cc1noc(C)c1NC(=O)Nc1ccc2c(c1)CC(=O)N([C@H](C)CO)C[C@@H](C)[C@H](CN(C)Cc1ccc(C(F)(F)F)cc1)O2 | inactive | inactive
15 | Cn1c(CC#N)n[nH]c1=S | inactive | inactive
16 | COC(=O)c1cc(-c2ccccc2)c(=O)n2c1N(C)[C@@]1(COCc3ccc(OC)cc3)Oc3ccccc3[C@@H]2[C@H]1CO[Si](C)(C)C(C)(C)C | inactive | inactive
17 | COc1ccc(COC[C@@]23Oc4ccccc4[C@@H](NC(=O)N2C(=O)c2ccccc2)[C@H]3CO[Si](C)(C)C(C)(C)C)cc1 | inactive | inactive
18 | C=CCOC(=O)[C@H]1[C@@H]2C(=O)O[C@@H](c3ccccc3)[C@@H](c3ccccc3)N2[C@@H](c2ccc(OCCOC(=O)[C@H]3C[C@H]4C(=O)N[C@@H](Cc5ccccc5)C(=O)N4[C@H]3c3ccc(O)cc3)cc2)[C@]12C(=O)Nc1ccccc12 | inactive | inactive
19 | COc1ccc(NC(=O)N(C)C[C@@H]2Oc3ccc(NS(=O)(=O)c4cn(C)cn4)cc3CC(=O)N([C@H](C)CO)C[C@H]2C)cc1 | inactive | inactive
20 | C[C@H](CO)N1C[C@H](C)[C@H](CN(C)C(=O)Nc2ccc(C(F)(F)F)cc2)OCCCC[C@H](C)Oc2ccc(NC(=O)c3ccncc3)cc2C1=O | inactive | inactive
21 | COc1ccc(S(=O)(=O)N(C)C[C@@H]2OCCCC[C@H](C)Oc3ccc(NC(=O)c4ccccc4)cc3C(=O)N([C@H](C)CO)C[C@@H]2C)cc1 | inactive | inactive
22 | C[C@@H]1CN([C@@H](C)CO)C(=O)c2cccc(NC(=O)Nc3ccc(C(F)(F)F)cc3)c2O[C@@H]1CN(C)C(=O)Nc1ccccc1 | inactive | active
23 | C[C@@H]1CN([C@H](C)CO)C(=O)c2cc(NS(=O)(=O)c3ccc(F)cc3)ccc2O[C@H]1CN(C)Cc1ccc(Oc2ccccc2)cc1 | inactive | inactive
24 | C[C@H]1CN([C@@H](C)CO)S(=O)(=O)c2ccc(Br)cc2O[C@@H]1CN(C)C(=O)Nc1ccc2c(c1)OCO2 | inactive | inactive
25 | NNC(=S)Nc1cccc(F)c1 | inactive | inactive
26 | CC(C)(C)[C@H]1CCc2c(sc3nc(-c4ccccc4)cn23)C1 | inactive | inactive
27 | COc1ccc(NC(=O)Nc2ccc3c(c2)C(=O)N([C@H](C)CO)C[C@@H](C)[C@H](CN(C)Cc2ccc(C(F)(F)F)cc2)OCCCC[C@H](C)O3)cc1 | inactive | inactive
